Assay results published in the supplement of paper PMC9446081.
The whole screen tested about 39,000 compounds, of which about 220 (0.56%) showed activity. This is one part of the list.

test system: Escherichia coli K-12 BW25113; test: relative growth (OD600 normalised to plate interquartile mean) (fraction); higher = less growth inhibition, active = 0.2 or less; details: 50 µM; LB; incubation time: overnight (16-24 h)
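Note: static incubation at 37 °C against the wild-type strain, values averaged over two biological replicates.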

SMILES | relative growth
Cc1noc(C)c1S(=O)(=O)N(C)C[C@@H]1OCCCC[C@@H](C)Oc2ccc(N(C)C)cc2C(=O)N([C@H](C)CO)C[C@H]1C | inactive: 0.996
C[C@H]1CN([C@@H](C)CO)C(=O)c2cc(NC(=O)Nc3ccc(C(F)(F)F)cc3)ccc2O[C@@H]1CN(C)C(=O)Nc1cccc2ccccc12 | inactive: 1.04
C[C@@H]1CN([C@H](C)CO)C(=O)c2cc(NC(=O)Nc3cccc4ccccc34)ccc2O[C@@H](C)CCCCO[C@@H]1CN(C)Cc1ccncc1 | inactive: 1.02
Cl.NC1CCN(c2c(F)cc3c(=O)c(C(=O)O)cn(C4CC4)c3c2Cl)C1 (stereo unspecified) | active: 0.0438
C[C@@H]1CN([C@H](C)CO)S(=O)(=O)c2ccc(C#Cc3cccc(F)c3)cc2O[C@H]1CN(C)C(=O)CN1CCOCC1 | inactive: 1.02
CCN(CC)c1ccnc([C@H]2COCCN2)n1 | inactive: 1
C[C@@H]1CCCCO[C@H](CN(C)CC2CCCCC2)[C@@H](C)CN([C@H](C)CO)C(=O)c2cc(NC(=O)CCC(F)(F)F)ccc2O1 | inactive: 1
O=C(C[C@H]1C[C@H]2c3cc(NS(=O)(=O)c4ccc(F)cc4)ccc3O[C@H]2[C@H](CO)O1)N1CCOCC1 | inactive: 1.03
CN1C(=O)c2cc(NS(C)(=O)=O)ccc2OC[C@H]2O[C@@H](CC(=O)N3CCOCC3)CC[C@H]21 | inactive: 0.986
C[C@H](CO)N1C[C@H](C)[C@@H](CN(C)CC2CCCCC2)Oc2ccc(NS(=O)(=O)c3cn(C)cn3)cc2C1=O | inactive: 1
C[C@@H]1CCCCO[C@@H](CN(C)Cc2ccccc2)[C@@H](C)CN([C@@H](C)CO)C(=O)c2cc(NS(=O)(=O)c3ccc(Cl)cc3)ccc2O1 | inactive: 1.01
C[C@@H]1CN([C@H](C)CO)C(=O)Cc2cc(NC(=O)Nc3cccc4ccccc34)ccc2O[C@H]1CN(C)CC1CCCCC1 | inactive: 0.9
COc1ccc(S(=O)(=O)N(C)C[C@@H]2Oc3c(NC(=O)C4CC4)cccc3C(=O)N([C@@H](C)CO)C[C@@H]2C)cc1 | inactive: 0.999
C[C@H](CO)N1C[C@H](C)[C@@H](CN(C)S(C)(=O)=O)OCCCC[C@H](C)Oc2ccc(N(C)C)cc2C1=O | inactive: 0.989
C[C@@H]1CN([C@@H](C)CO)C(=O)c2cc(NC(=O)Nc3ccc4c(c3)OCO4)ccc2O[C@@H]1CN(C)Cc1ccc(-c2ccccc2)cc1 | inactive: 1.03
COc1ccc(NC(=O)Nc2ccc3c(c2)CC(=O)N([C@H](C)CO)C[C@@H](C)[C@H](CN(C)Cc2ccc(Cl)c(Cl)c2)O3)cc1 | inactive: 1.02
C[C@@H]1CCCCO[C@H](CN(C)S(=O)(=O)c2cccs2)[C@H](C)CN([C@H](C)CO)C(=O)c2cc(NC(=O)Nc3ccccc3)ccc2O1 | inactive: 1.03
Cc1noc(C)c1S(=O)(=O)Nc1cccc2c1O[C@@H](CN(C)Cc1ccc(C(=O)O)cc1)[C@@H](C)CN([C@@H](C)CO)C2=O | inactive: 0.988
C[C@@H]1CCCCO[C@@H](CN(C)C(=O)CCC(F)(F)F)[C@H](C)CN([C@@H](C)CO)C(=O)c2cc(NS(=O)(=O)c3ccc(Cl)cc3)ccc2O1 | inactive: 1.01

SMILES | relative growth
O=C(O)c1c2ccccc2cc2ccccc12 | inactive: 1.07
COc1cccc(S(=O)(=O)N(C)C[C@H]2Oc3cc(C#CCN(C)C)ccc3S(=O)(=O)N([C@H](C)CO)C[C@H]2C)c1 | inactive: 1.01
COC(=O)C[C@H]1O[C@]2(C(=O)N(Cc3ccccc3)c3ccc(I)cc32)[C@@H](C)[C@@H]1[Si](C)(C)c1ccc(OC)cc1 | inactive: 0.987
Fc1ccc(-c2nc3c4ccccc4c4ccccc4c3[nH]2)cc1 | inactive: 0.997
C[C@@H]1CN([C@H](C)CO)C(=O)Cc2cc(NS(C)(=O)=O)ccc2O[C@@H]1CN(C)Cc1ccc(C(F)(F)F)cc1 | inactive: 1.02
C[C@H](CO)N1C[C@H](C)[C@@H](CN(C)Cc2cccc(C(F)(F)F)c2)OCc2ccccc2-c2c(n(C)c3ccccc23)C1=O | inactive: 0.998
COc1ccc2c3c(n(c2c1)C)[C@@H](CO)N(C[C@]13CCN(CC1)C(=O)Nc1cccc(c1)F)C(=O)C1CCCCC1 | inactive: 1.02
O=C1O[C@@H](c2ccccc2)[C@@H](c2ccccc2)N2[C@@H](c3ccc(OCCO)cc3)[C@]3(C(=O)Nc4ccccc43)[C@@H](C(=O)N3CCCCCCC3)[C@H]12 | inactive: 1.04
O=C1O[C@@H](c2ccccc2)[C@@H](c2ccccc2)N2[C@@H](c3ccc(OCCO)cc3)[C@]3(C(=O)Nc4ccc(C#CC5(O)CCCCCC5)cc43)[C@@H](C(=O)NC[C@H](O)c3ccccc3)[C@H]12 | inactive: 1.1
CCS(=O)(=O)Nc1ccc2c(c1)C(=O)N(C)C[C@@H](OC)[C@H](C)CN(C(=O)c1ccc3c(c1)OCO3)[C@@H](C)CO2 | inactive: 0.947
CCS(=O)(=O)Nc1ccc2c(c1)C(=O)N(C)C[C@H](OC)[C@@H](C)CN(C(=O)c1ccc3c(c1)OCO3)[C@@H](C)CO2 | inactive: 1
C[C@@H]1CCCCO[C@H](CN(C)C(=O)Nc2ccccc2)[C@H](C)CN([C@@H](C)CO)C(=O)c2cc(NC(=O)c3ccncc3)ccc2O1 | inactive: 0.966
COCC#Cc1ccc2c(c1)O[C@H](CN(C)C(=O)C1CCCCC1)[C@H](C)CN([C@@H](C)CO)S2(=O)=O | inactive: 1.01
CN1CCN(C(=O)C[C@@H]2CC[C@@H]3[C@H](COC[C@H](O)CN3S(=O)(=O)c3cccc(F)c3)O2)CC1 | inactive: 1.02
Cc1ccc(S(=O)(=O)N(C)C[C@H]2Oc3ccc(NC(=O)Nc4cccc5ccccc45)cc3CC(=O)N([C@@H](C)CO)C[C@@H]2C)cc1 | inactive: 1.02
O=C(NCCCN1CCOCC1)c1ccc(Cl)cc1 | inactive: 1.06
Cc1noc(C)c1NC(=O)N(C)C[C@@H]1OCCCC[C@@H](C)Oc2ccc(NC(=O)Nc3ccc(C(F)(F)F)cc3)cc2C(=O)N([C@@H](C)CO)C[C@H]1C | inactive: 1.01
C[C@H]1CCCCO[C@H](CN(C)S(=O)(=O)c2ccccc2)[C@@H](C)CN([C@@H](C)CO)C(=O)c2cc(NS(=O)(=O)c3cn(C)cn3)ccc2O1 | inactive: 1.02
C[C@@H]1CCCCO[C@H](CN(C)C(=O)Nc2ccc(C(F)(F)F)cc2)[C@@H](C)CN([C@@H](C)CO)C(=O)c2cc(NS(=O)(=O)c3ccc(F)cc3)ccc2O1 | inactive: 1.01

SMILES | relative growth
C[C@@H]1CN([C@@H](C)CO)C(=O)c2cc(NC(=O)CCCCCC(=O)Nc3ccccc3N)ccc2O[C@H]1CN(C)CC1CCCCC1 | inactive: 0.987
CC(C)NC(=O)N[C@@H]1C=C[C@@H](CC(=O)O)O[C@@H]1CO | inactive: 0.997
O=C(CCCCC(=O)N/N=C/[C@@H](O)[C@@H](O)[C@H](O)[C@H](O)CO)NO | inactive: 1.03
Cc1ccc(S(=O)(=O)Nc2ccc3c(c2)C(=O)N([C@H](C)CO)C[C@@H](C)[C@H](CN(C)Cc2ccc(Cl)c(Cl)c2)OCCCC[C@H](C)O3)cc1 | inactive: 0.989
CNC(=O)C[C@@H]1CC[C@@H]2[C@H](COC[C@H](O)CN2C(=O)c2ccc3c(c2)OCO3)O1 | inactive: 1.01
C=C(C(=O)O[C@H]1CC=C(C)C[C@H](O)[C@H]2[C@H](C)C(=O)O[C@@H]2/C=C/1C)[C@@H]1CCC(=C)[C@@H]2C[C@H](O[C@@H]3O[C@H](COC(=O)CC(=O)O)[C@@H](O)[C@H](O)[C@H]3O)C(=C)[C@@H]2C1 | inactive: 1
CN(C)c1cc(CNCC(C)(C)C)c(O)c2c1C[C@H]1C[C@H]3[C@H](N(C)C)C(=O)[C@H](C(N)=O)C(=O)[C@@]3(O)C(=O)[C@@H]1C2=O | active: 0.0692
C[C@@H]1CCCCO[C@@H](CN(C)C(=O)C2CCCCC2)[C@H](C)CN([C@@H](C)CO)C(=O)c2cc(NC(=O)CCCCCC(=O)Nc3ccccc3N)ccc2O1 | inactive: 0.981
COCC(=O)N1CC[C@]2(CC1)CN([C@H](CO)c1c2c2ccc(cc2n1C)OC)C(=O)Cc1ccccc1 | inactive: 0.977
CC(C)=CCC[C@](C)(O[C@@H]1O[C@H](CO)[C@@H](O)[C@H](O)[C@H]1O)[C@H]1CC[C@]2(C)[C@@H]1[C@H](O)C[C@@H]1[C@@]3(C)CC[C@H](O)C(C)(C)[C@@H]3[C@@H](O[C@@H]3O[C@H](CO)[C@@H](O)[C@H](O)[C@H]3O[C@@H]3O[C@@H](C)[C@H](O)[C@@H](O)[C@H]3O)C[C@]12C | inactive: 1
COCC(=O)NC1CCN(C2CCNCC2)CC1 | inactive: 0.993
C[C@@H]1CCCCO[C@@H](CN(C)C(=O)NC2CCCCC2)[C@@H](C)CN([C@@H](C)CO)C(=O)c2cc(NS(=O)(=O)c3cccs3)ccc2O1 | inactive: 0.967
COC(=O)c1c(OC)cc2c(c1C)Oc1c(Cl)c(O)c(Cl)c(C)c1C(=O)O2 | inactive: 0.935
CC(=O)N1CCC(C(=O)O)CC1 | inactive: 1.02
C[C@@H]1CN([C@@H](C)CO)C(=O)c2cc(NC(=O)c3ccncc3)ccc2O[C@@H]1CN(C)S(=O)(=O)c1ccccc1 | inactive: 1.01
C[C@@H]1CCCCO[C@H](CN(C)S(=O)(=O)c2ccc(Cl)cc2)[C@H](C)CN([C@@H](C)CO)C(=O)c2cc(NS(=O)(=O)c3ccc(Cl)cc3)ccc2O1 | inactive: 1.02
Cc1noc(C)c1NC(=O)N(C)C[C@H]1Oc2c(NC(=O)c3ccc(-c4nccs4)cc3)cccc2C(=O)N([C@@H](C)CO)C[C@@H]1C | inactive: 0.986
C[C@@H]1CCCCO[C@@H](CN(C)C(=O)Nc2ccc3c(c2)OCO3)[C@@H](C)CN([C@@H](C)CO)C(=O)c2cc(NC(=O)Nc3ccccc3)ccc2O1 | inactive: 1.04
